# From PubChem BioAssay AID686978 (National Center for Advancing Translational Sciences (NCATS), 2013)
# The whole screen tested about 420,000 compounds, of which about 64,000 (15%) were called active. Inconclusive results, whose numbers are uncertain, are shown with a selection of clear calls. Calls follow the shape of the dose curve; as a rule, active = well fitted inhibition curve with a large enough effect; inconclusive = small, poorly fitted or top-dose-only effect; inactive = flat fitted curve, though single readings scatter. Potencies of inconclusive entries are left out as doubtful fits.
# Experiment: qHTS for Inhibitors of human tyrosyl-DNA phosphodiesterase 1 (TDP1): qHTS in cells in absence of CPT; also: nearly all actives have a fitted effect of over 55% in size
# Details: DT40 Tdp1-/- hTDP1 cells, no CPT, ATP luminescence, 48 h; activity change, negative = growth inhibition: at 46.2 µM (top of the series) unless noted
# Method in brief: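 Cells were dispensed at 400 per well, compounds added by pin tool, plates incubated ≥48 hr at 37 °C, then CellTiter-Glo added for 30 min at room temperature before luminescence reading. Line: DT40 Tdp1-/- complemented with hTDP1; camptothecin omitted.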
# % is scaled to controls: 0 for no effect and ±100 for the full control effect; potency is read from the fitted curve at half-maximal effect; tags tell the direction and shape of the fitted curve.
Compound,Potency,"activity change, negative = growth inhibition"
Cc1oc(-c2ccc(Cl)cc2)nc1CSCC(=O)NC1CCN(Cc2ccccc2)CC1,"inconclusive [inhibitor, single point]",–
Cc1ccc(C(=O)N2CCN(c3ccc([N+](=O)[O-])cc3)CC2)o1,"inconclusive [inhibitor, partial curve, poor fit]",–
O=C(CSc1nc2ccccc2c(=O)[nH]1)Nc1ccc([N+](=O)[O-])cc1,"inconclusive [inhibitor, partial curve]",–
CC1=C(c2ccc(C(C)C)cc2)S(=O)(=O)N=C1N1CCN(c2ccccc2F)CC1,active: 18.4 µM,–
COc1ccc(NC(=O)c2c(C)noc2C(C)C)cc1S(=O)(=O)N1CCCCC1,"inconclusive [inhibitor, single point]",–
O=S(=O)(c1ccccc1)N1CCN(Cc2cccc(Br)c2)CC1,"inconclusive [inhibitor, single point]",–
COc1ccc2[nH]c(=O)c(CN(C(=O)C3CCCO3)c3ccc(C)cc3)cc2c1 (stereo not drawn),"inconclusive [inhibitor, single point]",–
Cc1ccc(CNc2ccc3c(c2)nc(C)n3C)cc1,–,inconclusive: -34.6% [inhibitor]
CC1CN(c2ccc([N+](=O)[O-])c(NCCOc3ccccc3)c2)CC(C)N1 (stereo not drawn),"inconclusive [inhibitor, single point]",–
Cc1cc(C)n2nc(C(=O)OCC(=O)NNC(=O)c3ccccc3)nc2n1,–,inactive: 4.09%
CC1Sc2n(c3ccccc3[n+]2C)N=C1c1ccccc1 (stereo not drawn),active: 1.46 µM,–
Cc1ccnc(NC(=O)CCC(=O)N(CC(=O)NCc2ccc(F)cc2)c2ccc(F)cc2)c1,"inconclusive [inhibitor, partial curve]",–
COC(=O)c1cc(NC(=O)CSc2nnc(CN3CCOCC3)n2C)ccc1Cl,"inconclusive [inhibitor, partial curve]",–
Nc1[nH]c(=O)[nH]c(=O)c1N=Nc1ccc(C(=O)O)cc1,–,inactive: -1.13%
CCCS(=O)(=O)c1ccc(COC(=O)Cc2ccc([N+](=O)[O-])cc2)cc1,–,inconclusive: -31.8% [inhibitor]
C=CCN1C2CCCC1CC(NC(=O)Nc1cc(C)cc(C)c1)C2 (stereo not drawn),"inconclusive [inhibitor, single point]",–
Cc1ccccc1Nc1nn2c(=O)c3ccc(C(=O)NCC(C)c4ccccc4)cc3nc2s1 (stereo not drawn),active: 14.6 µM,–
COc1cc(NC(=O)Cn2nnc(-c3ccccc3N)n2)cc(OC)c1,"inconclusive [inhibitor, partial curve]",–
